Legend:
porcine brain tubulin [1] = conditions: 10 μM compound; for Vmax (maximal velocity of tubulin polymerization): 3 mg/mL tubulin, 340 nm, 37 °C, mean ± SD (n = 3), DMSO 11.6
porcine brain tubulin [2] = molecular target: porcine brain tubulin (Sus scrofa, UniProt P02550+P02554); type: binding; conditions: four-parameter regression of SPR response
porcine brain tubulin, sequence (P02554 whole entry): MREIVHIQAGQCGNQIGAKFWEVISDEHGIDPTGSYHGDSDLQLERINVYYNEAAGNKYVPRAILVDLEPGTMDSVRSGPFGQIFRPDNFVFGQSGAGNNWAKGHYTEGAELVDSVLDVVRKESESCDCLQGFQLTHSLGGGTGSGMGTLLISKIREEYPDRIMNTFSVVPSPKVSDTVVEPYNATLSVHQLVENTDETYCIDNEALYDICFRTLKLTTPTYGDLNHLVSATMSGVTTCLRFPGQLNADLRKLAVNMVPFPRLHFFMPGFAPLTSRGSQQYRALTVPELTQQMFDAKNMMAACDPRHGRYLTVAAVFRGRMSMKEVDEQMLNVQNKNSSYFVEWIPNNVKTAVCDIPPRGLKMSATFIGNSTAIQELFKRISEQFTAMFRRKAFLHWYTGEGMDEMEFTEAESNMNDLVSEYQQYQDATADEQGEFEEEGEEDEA
porcine brain tubulin, sequence (P02550 whole entry): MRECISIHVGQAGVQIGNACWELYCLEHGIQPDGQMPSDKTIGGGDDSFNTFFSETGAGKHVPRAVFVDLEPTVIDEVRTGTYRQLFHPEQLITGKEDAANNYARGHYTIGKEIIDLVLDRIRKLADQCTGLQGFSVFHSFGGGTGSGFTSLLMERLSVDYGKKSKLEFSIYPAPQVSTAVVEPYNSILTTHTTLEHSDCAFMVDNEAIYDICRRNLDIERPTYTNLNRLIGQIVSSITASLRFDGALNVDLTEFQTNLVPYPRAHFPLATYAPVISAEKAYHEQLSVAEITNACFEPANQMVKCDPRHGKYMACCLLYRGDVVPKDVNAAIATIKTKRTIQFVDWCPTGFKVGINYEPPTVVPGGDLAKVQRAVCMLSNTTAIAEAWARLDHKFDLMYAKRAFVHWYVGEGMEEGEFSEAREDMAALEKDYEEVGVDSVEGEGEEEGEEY

SMILES: COc1cc(C2=C3C(C)=CC(C)=[N+]3[B-](F)(F)n3c(C)cc(C)c32)ccc1OCc1cn([C@H]2CCc3cc(OC)c(OC)c(OC)c3-c3ccc(OC)c(=O)cc32)n[n+]1C [CB9]
- Vmax (maximal velocity of tubulin polymerization) (porcine brain tubulin [1]): 10.3 ± 1.0 mOD/min

SMILES: COc1cc2c(c(OC)c1OC)-c1ccc(OC)c(=O)cc1[C@@H](n1cc(CCCC3=C4C(C)=CC(C)=[N+]4[B-](F)(F)n4c(C)cc(C)c43)nn1)CC2 [CB4]
- effect on tubulin assembly (in words) (porcine brain tubulin [1]): significantly interfered with tubulin assembly
- Vmax (maximal velocity of tubulin polymerization) (porcine brain tubulin [1]): 4.0 ± 1.0 mOD/min
- Hill Slope (porcine brain tubulin [2]): 2.2 ± 0.5

SMILES: COc1cc2c(c(OC)c1OC)-c1ccc(OC)c(=O)cc1[C@@H](n1cc(CCCC3=C4C(C)=CC(C)=[N+]4[B-](F)(F)n4c(C)cc(C)c43)[n+](C)n1)CC2 [CB7]
- Vmax (maximal velocity of tubulin polymerization) (porcine brain tubulin [1]): 9.4 ± 1.0 mOD/min

SMILES: COc1cc2c(c(OC)c1OC)-c1ccc(OC)c(=O)cc1[C@@H](NC(=O)CCC1=C3C(C)=CC(C)=[N+]3[B-](F)(F)n3c(C)cc(C)c31)CC2 [CB1]
- effect on tubulin assembly (in words) (porcine brain tubulin [1]): only weak inhibition of tubulin assembly
- Vmax (maximal velocity of tubulin polymerization) (porcine brain tubulin [1]): 10.4 ± 2.1 mOD/min

SMILES: COc1cc(C2=C3C(C)=CC(C)=[N+]3[B-](F)(F)n3c(C)cc(C)c32)ccc1OCc1cn([C@H]2CCc3cc(OC)c(OC)c(OC)c3-c3ccc(OC)c(=O)cc32)nn1 [CB6]
- Vmax (maximal velocity of tubulin polymerization) (porcine brain tubulin [1]): 8.6 ± 1.4 mOD/min

SMILES: COc1cc2c(c(OC)c1OC)-c1ccc(OC)c(=O)cc1[C@@H](n1cc(CCCCCCCCC3=C4C(C)=CC(C)=[N+]4[B-](F)(F)n4c(C)cc(C)c43)nn1)CC2 [CB5]
- Vmax (maximal velocity of tubulin polymerization) (porcine brain tubulin [1]): 9.5 ± 2.6 mOD/min

SMILES: COc1cc2c(c(OC)c1OC)-c1ccc(OC)c(=O)cc1[C@@H](NC(=O)CCCC[N+](C)(C)CCCCC1=C3C(C)=CC(C)=[N+]3[B-](F)(F)n3c(C)cc(C)c31)CC2 [CB3]
- effect on tubulin assembly (in words) (porcine brain tubulin [1]): significantly interfered with tubulin assembly
- Vmax (maximal velocity of tubulin polymerization) (porcine brain tubulin [1]): 6.5 ± 1.8 mOD/min

SMILES: COc1cc2c(c(OC)c1OC)-c1ccc(OC)c(=O)cc1[C@@H](NC(=O)CCCCCCCCCCC1=C3C(C)=CC(C)=[N+]3[B-](F)(F)n3c(C)cc(C)c31)CC2 [CB2]
- Vmax (maximal velocity of tubulin polymerization) (porcine brain tubulin [1]): 9.1 ± 3.2 mOD/min
